Measured values as given in PubChem BioAssay (NCI).
Where “and” joins values, the source holds several entries; their conditions need not be identical. Identical values can stand only once.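 96-well plates; 48 h exposure; 5 concentrations. Endpoints by linear interpolation between flanking doses. Not reached: highest tested concentration assigned. GI50 marks 50% less growth. TGI marks complete inhibition of growth.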

test system: NCI-H322M lung; assay: NCI anticancer screen, dose series, 48 h

Compound	TGI	GI50
CCOC(=O)C(C)c1nc2cc(F)c(N3CCOCC3)cc2[nH]c1=O (stereo unspecified)	> 100 µM	–
Cc1cccc(/C=N/NC(=S)NC2CCCCC2)n1	> 100 µM	–
COC1C(=[N+]=[N-])C(=O)NC(=O)N1C1OC(COC(c2ccccc2)(c2ccccc2)c2ccccc2)C(O)C1O (stereo unspecified)	30.3 µM	–
CC1=NN(c2cccc(Cl)c2)C(=N/c2nc3ccccc3s2)/C1=C\c1ccccc1O	97.4 µM	–
Brc1nc2c3ccccc3ncn2c1Br	> 100 µM	–
COc1ccc(-c2cc(-c3ccccc3)c3c(n2)-c2ccccc2NC(=O)C3)cc1	> 100 µM	–
CCOC(=O)/C(=C\NC[C@@H](C)O)c1nc2ccccc2[nH]1	> 100 µM	–
CC1=C(C(=O)Nc2ccc(F)c(Cl)c2)C(c2cccc(O)c2)NC(=S)N1 (stereo unspecified)	> 50 µM	18.2 µM
COC(=O)/C=C/COCC1C2CCC(=O)C21 (stereo unspecified)	> 100 µM	–
CC(C)(C)c1cc(C(C)(C)C)c(P=C(Cl)Cl)c(C(C)(C)C)c1 (stereo unspecified)	> 100 µM	–
O=C(c1c(F)c(F)c(F)c(F)c1F)n1c(=O)[nH]c2ccccc21	29 µM	–
O=C1c2scc(-c3ccc(F)cc3)c2-n2cccc21	> 100 µM	–
C=C1C(=O)OC2C1C(OC(=O)/C(C)=C/C)CC(O)(CCl)C1C(OC(C)=O)C=C(C)C21O (stereo unspecified)	> 64.6 µM	–
Cc1c2cc[n+](C)cc2c(C)c2c1[nH]c1ccc(OC(C)C)cc12	70.9 µM and 93.5 µM	3.14 µM and 10.5 µM
COc1ccc2c(CN3CCC(CO)CC3)cc3cc4c(cc3c2c1)OCO4	3.56 µM	0.257 µM
COC(=O)/C=C1\SC(=Nc2ccc(C(F)(F)F)cc2)N(CCc2c[nH]c3ccccc23)C1=O	4.63 µM	2.08 µM
O=C(Oc1cccc(Nc2ncnc3ccccc23)c1)c1ccccc1Cl	38.1 µM	6.15 µM
Cc1nc(C)c(N2CCN(C(=O)NC(CCC(=O)O)C(=O)O)CC2)c(=O)[nH]1 (stereo unspecified)	> 100 µM	–
CCCOP1(=O)C=C(C)C(Cl)=C(C)C1 (stereo unspecified)	67 µM	–
CCC12CCC(O)C1N(C)CCC2Sc1ccccc1 (stereo unspecified)	> 100 µM	–
CN(C)Cc1cc(N=Nc2c(Cl)cccc2Cl)ccc1O	> 100 µM	–
COc1c2c(c(OC)c3c(=O)cc(C/C(=N/NC(=O)C[n+]4ccccc4)C(=O)Nc4cc(C)ccc4C)oc13)OCO2	> 100 µM	–
Clc1ccccc1-c1nn2c(CCCCCCCCc3nnc4sc(-c5ccccc5Cl)nn34)nnc2s1	> 100 µM	–

Compound	TGI	GI50
N#Cc1c(Cl)cccc1Oc1ccc(S(=O)(=O)/N=C(\NO)Nc2ccc(Cl)cc2)cc1	28.9 µM	–
N#Cc1c2ccccc2c2nnc3cc(C(F)(F)F)ccc3n12	> 100 µM	> 100 µM
COC(=O)CC(SCCO)SCCO	> 100 µM	–
CN(C)CCN1N=Nc2cccc3cccc1c23	> 100 µM	–
COc1cc2c3c(n(CCCO)c(=O)c2cc1OC)-c1cc2c(cc1C3=O)OCO2	> 70.5 µM	9.11 µM
COC(=O)C1=C(C(=O)OC)C2(c3ccccc3)c3ccccc3C(=O)C1N2C1CCCCC1 (stereo unspecified)	> 100 µM	–
Cn1cc(-c2nc(-c3c[nH]c4ncccc34)cs2)c2cc(Cl)ccc21	47.7 µM	2.64 µM
CCOC(=O)c1[nH]c2cccc3c2c1CC(Br)C3=O (stereo unspecified)	22.6 µM	–
CCCCCCCCCCCCOCCCCCCCCC/C=C/c1ccc2c(c1)OCCOCCOCCOCCO2	> 100 µM	–
c1ccc2nc3c(nc2c1)sc1nc2ccccc2n13	> 100 µM	–
COc1ccc(-c2nc3sccn3c2/C=C/C(=O)c2cc(OC)c(OC)c(OC)c2)cc1OC	80.1 µM	4.31 µM
COc1cc(/C=C2\CC(C)CC3C2=NN(c2ccccc2)C3c2cc(OC)c(OC)c(OC)c2)cc(OC)c1OC (stereo unspecified)	> 100 µM	43.7 µM
CC(C)SC1SCC2C(=O)N(C)C3(CC3C)C(=O)OCC(NC(=O)c3nc4ccccc4cc3O)C(=O)NC(C)C(=O)N(C)C1C(=O)N(C)C1(CC1C)C(=O)OCC(NC(=O)c1nc3ccccc3cc1O)C(=O)NC(C)C(=O)N2C (stereo unspecified)	< 0.0001 µM	–
CN(C)CCCNC(=O)c1cc(NC(=O)c2cc(NC(=O)CCCN3c4ccccc4C=Cc4ccccc43)cn2C)cn1C	8.31 µM	1.82 µM
COC(=O)C1Cc2c(n(C)c3ccccc23)C(c2ccccc2)N1 (stereo unspecified)	> 100 µM	–
COC1/C=C/C(C)C(C(C)C(OC)C(C)CCC(=O)C(C)C(CC(=O)O)OC)OC(=O)/C=C/C=C(\C)CC(OC)C(OC)C2=CC(=O)O[C@@H](C(C)C(OC)CC(OC)/C=C/C(C)C(O)C1)[C@H]2O (stereo partly specified)	> 1.07 µM	–
COC(=O)C(=O)C(C(=O)C(=O)Nc1ccc([N+](=O)[O-])cc1[N+](=O)[O-])c1nc2ccc([N+](=O)[O-])cc2[nH]c1=O (stereo unspecified)	> 100 µM	–
CCNCCNc1cc(-c2ccc(Cl)cc2)c(C#N)c2nc3ccccc3n12	3.3 µM	1.68 µM
CC(C)(C)c1ccc(Oc2ccc(C#N)c(C#N)c2)c(C(C)(C)C)c1	> 100 µM	–
Cc1cc(S(=O)(=O)Nc2nnc(-c3ccco3)c(-c3ccco3)n2)c(SCc2ccccc2)cc1Cl	59.8 µM	21.6 µM
Nc1nc([O-])c([I+]c2ccccc2)c(=O)[nH]1	> 100 µM	–
O=C(CCl)Nc1ccccc1SCc1cc(Cl)cc2c1OCOC2	29 µM	14.4 µM
CC(=O)C(C(=N)C#N)C(=O)Nc1ccccc1 (stereo unspecified)	> 100 µM	–

Compound	TGI	GI50
CC1=CCP(C(F)(F)F)P(C(F)(F)F)C1 (stereo unspecified)	> 100 µM	–
O=C(CSc1nc2ccc([N+](=O)[O-])cc2[nH]1)Nc1cccc(C(F)(F)F)c1	12 µM	3.11 µM
CNc1nc2c(C)ccc3nc(N(C)C)nc-3c2n1C	> 10 µM	–
O=C1CC2(CCCc3sccc32)C(=O)N1 (stereo unspecified)	> 100 µM	–
Cc1c(C(=O)N/N=C/c2ccc(O)cc2)nnn1-c1ccnc2c(C(F)(F)F)cccc12	> 100 µM	> 100 µM
CC1CC/C(=C\c2ccc(Cl)cc2)C(=O)/C1=C\c1ccc(Cl)cc1 (stereo unspecified)	> 100 µM	–
COc1ccc(-n2c(-c3ccc(NC(=O)CCCl)cc3)nnc2-c2cc(OC)c(OC)c(OC)c2)cc1	12.6 µM	3.15 µM
N#Cc1cccc(Nc2ccccc2SSc2ccccc2Nc2cccc(C#N)c2)c1	> 21.5 µM	–
COc1ccc(/C=C/C(=N/NC(=O)N/N=C(/C=C/c2ccc(OC)cc2)C(C)C)C(C)C)cc1	> 100 µM	–
O=c1oc2ccccc2cc1-c1nc2ccccc2c(=O)[nH]1	> 100 µM	–
CN(O)C(=O)c1ccc(OCc2cccc(Cl)c2)cc1	> 100 µM	–
CCCCC1=C(C(=O)N2CCOCC2)C2(OCCO2)C1Cl (stereo unspecified)	> 100 µM	–
Cc1ccc(C2=[N+]([O-])c3ccccc3C2=O)cc1	> 100 µM	–
CC(=O)O[C@H]1CC[C@@]2(C)C(=CC[C@H]3[C@@H]4C[C@H](N5CCN(C)CC5)[C@H](OC(C)=O)[C@@]4(C)CC[C@@H]32)C1	36 µM	–
O=[N+]([O-])c1ccc2c(c1)OCCOCCOc1ccc([N+](=O)[O-])cc1OCCOCCO2	> 100 µM	–
COc1ccc(/C=C/C(=O)c2cccc(C(=O)/C=C/c3ccc(OC)c(OC)c3)n2)cc1OC	> 100 µM	–
Cc1cc(Cl)ccc1NC(=O)/C(Cc1nc2ccc(C(=O)c3ccccc3)cc2[nH]c1=O)=N/NC(=O)c1ccncc1	> 100 µM	–
CC1=C2C(=CC(C)(CO)C2O)C(=O)C(C)(O)C12CC2 (stereo unspecified)	0.0677 µM	–
COC(=O)C1=C(O)C(C(=O)OC)[C@]2(O)[C@H](C(=O)OC)[C@H]1C[C@@H](c1ccc(O)cc1)[C@H]2C(=O)OC (stereo partly specified)	> 100 µM	–
Cc1nc2ccc(S(=O)(=O)Nc3ccccn3)cc2c(=O)n1NS(=O)(=O)c1ccccn1	> 100 µM	–
Cc1cc2c(c(C=Nc3ccc(N(C)C)cc3)c1)OC1(C=C2)Oc2ccccc2C(=O)N1C (stereo unspecified)	28.6 µM	–
O=C1C2c3[nH]c4ccccc4c3C3CCSCC3C2C(=O)N1c1ccccc1 (stereo unspecified)	> 100 µM	–
CC1=CC(=C(c2ccc(N)c(C)c2)c2ccc(N)c(C)c2)C=CC1=N	> 58.9 µM	–
